# According to the supplement of paper PMC8728848:
# The list shows a part of the results.
# B1: MUB40 (Lactobacillus reuteri) (peptide)
# chain: CTAEGIKKFEGDGYELFKDNFPAGEKFDNDDTNDQFYTVIF
# What was measured:
# Assay in all cases: glycan array binding signal (z-score within array); higher = stronger binding
# Conditions in all cases: glycan notation: IUPAC condensed, linker removed
# [1] = target: Gal(b1-4)GlcNAc(b1-3)Gal(b1-4)GlcNAc(b1-2)Man(a1-3)[Gal(b1-4)GlcNAc(b1-3)Gal(b1-4)GlcNAc(b1-2)Man(a1-6)]Man(b1-4)GlcNAc(b1-4)[Fuc(a1-6)]GlcNAc
# Outline: (§1)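 Glycan array data came from 3228 arrays in the Consortium for Functional Glycomics database, and only arrays with an available protein sequence were kept. Glycan names were put into IUPAC-condensed notation, and columns mapping to the same glycan were averaged. The binding signal is a within-array Z-score, averaged across arrays of one protein sequence run at different concentrations or buffers and across linkers. A negative Z-score can be read as non-binding.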
# [2] = target: Gal(b1-4)GlcNAc(b1-3)Gal(b1-4)GlcNAc(b1-2)[Gal(b1-4)GlcNAc(b1-3)Gal(b1-4)GlcNAc(b1-6)]Man(a1-6)[Gal(b1-4)GlcNAc(b1-3)Gal(b1-4)GlcNAc(b1-2)Man(a1-3)]Man(b1-4)GlcNAc(b1-4)GlcNAc
# Outline: as §1
# [3] = target: Gal(b1-4)GlcNAc(b1-3)Gal(b1-4)GlcNAc(b1-2)[Gal(b1-4)GlcNAc(b1-3)Gal(b1-4)GlcNAc(b1-6)]Man(a1-6)[Gal(b1-4)GlcNAc(b1-3)Gal(b1-4)GlcNAc(b1-2)Man(a1-3)]Man(b1-4)GlcNAc(b1-4)[Fuc(a1-6)]GlcNAc
# Outline: as §1
# [4] = target: Gal(b1-4)GlcNAc(b1-3)Gal(b1-4)GlcNAc(b1-3)Gal(b1-4)GlcNAc
# Outline: as §1
# [5] = target: Gal(b1-4)GlcNAc(b1-3)Gal(b1-4)GlcNAc(b1-3)Gal(b1-4)GlcNAc(b1-2)Man(a1-3)[Gal(b1-4)GlcNAc(b1-3)Gal(b1-4)GlcNAc(b1-3)Gal(b1-4)GlcNAc(b1-2)Man(a1-6)]Man(b1-4)GlcNAc(b1-4)GlcNAc
# Outline: as §1
# [6] = target: Gal(b1-4)GlcNAc(b1-3)Gal(b1-4)GlcNAc(b1-3)Gal(b1-4)GlcNAc(b1-2)Man(a1-3)[Gal(b1-4)GlcNAc(b1-3)Gal(b1-4)GlcNAc(b1-3)Gal(b1-4)GlcNAc(b1-2)Man(a1-6)]Man(b1-4)GlcNAc(b1-4)[Fuc(a1-6)]GlcNAc
# Outline: as §1
# [7] = target: Gal(b1-4)GlcNAc(b1-3)Gal(b1-4)GlcNAc(b1-3)Gal(b1-4)GlcNAc(b1-2)[Gal(b1-4)GlcNAc(b1-3)Gal(b1-4)GlcNAc(b1-3)Gal(b1-4)GlcNAc(b1-6)]Man(a1-6)[Gal(b1-4)GlcNAc(b1-3)Gal(b1-4)GlcNAc(b1-3)Gal(b1-4)GlcNAc(b1-2)Man(a1-3)]Man(b1-4)GlcNAc(b1-4)[Fuc(a1-6)]GlcNAc
# Outline: as §1
# [8] = target: Gal(b1-4)GlcNAc(b1-3)Gal(b1-4)GlcNAc(b1-3)Gal(b1-4)GlcNAc(b1-3)Gal(b1-4)GlcNAc(b1-2)Man(a1-3)[Gal(b1-4)GlcNAc(b1-3)Gal(b1-4)GlcNAc(b1-3)Gal(b1-4)GlcNAc(b1-3)Gal(b1-4)GlcNAc(b1-2)Man(a1-6)]Man(b1-4)GlcNAc(b1-4)GlcNAc
# Outline: as §1
# [9] = target: Gal(b1-4)GlcNAc(b1-3)Gal(b1-4)GlcNAc(b1-3)Gal(b1-4)GlcNAc(b1-3)Gal(b1-4)GlcNAc(b1-2)Man(a1-3)[Gal(b1-4)GlcNAc(b1-3)Gal(b1-4)GlcNAc(b1-3)Gal(b1-4)GlcNAc(b1-3)Gal(b1-4)GlcNAc(b1-2)Man(a1-6)]Man(b1-4)GlcNAc(b1-4)[Fuc(a1-6)]GlcNAc
# Outline: as §1
# [10] = target: Gal(b1-4)GlcNAc(b1-3)Gal(b1-4)GlcNAc(b1-3)Gal(b1-4)GlcNAc(b1-3)Gal(b1-4)GlcNAc(b1-2)[Gal(b1-4)GlcNAc(b1-3)Gal(b1-4)GlcNAc(b1-3)Gal(b1-4)GlcNAc(b1-3)Gal(b1-4)GlcNAc(b1-6)]Man(a1-6)[Gal(b1-4)GlcNAc(b1-3)Gal(b1-4)GlcNAc(b1-3)Gal(b1-4)GlcNAc(b1-3)Gal(b1-4)GlcNAc(b1-2)Man(a1-3)]Man(b1-4)GlcNAc(b1-4)[Fuc(a1-6)]GlcNAc
# Outline: as §1
# [11] = target: Gal(b1-4)GlcNAc(b1-3)Gal(b1-4)GlcNAc(b1-3)Gal(b1-4)GlcNAc(b1-3)Gal(b1-4)GlcNAc(b1-3)Gal(b1-4)GlcNAc(b1-2)Man(a1-3)[Gal(b1-4)GlcNAc(b1-3)Gal(b1-4)GlcNAc(b1-3)Gal(b1-4)GlcNAc(b1-3)Gal(b1-4)GlcNAc(b1-3)Gal(b1-4)GlcNAc(b1-2)Man(a1-6)]Man(b1-4)GlcNAc(b1-4)GlcNAc
# Outline: as §1
# [12] = target: Gal(b1-4)GlcNAc(b1-3)Gal(b1-4)GlcNAc(b1-3)Gal(b1-4)GlcNAc(b1-3)Gal(b1-4)GlcNAc(b1-3)Gal(b1-4)GlcNAc(b1-2)Man(a1-3)[Gal(b1-4)GlcNAc(b1-3)Gal(b1-4)GlcNAc(b1-3)Gal(b1-4)GlcNAc(b1-3)Gal(b1-4)GlcNAc(b1-3)Gal(b1-4)GlcNAc(b1-2)Man(a1-6)]Man(b1-4)GlcNAc(b1-4)[Fuc(a1-6)]GlcNAc
# Outline: as §1
# [13] = target: Gal(b1-4)GlcNAc(b1-3)Gal(b1-4)GlcNAc(b1-3)Gal(b1-4)GlcNAc(b1-3)Gal(b1-4)GlcNAc(b1-3)Gal(b1-4)GlcNAc(b1-2)[Gal(b1-4)GlcNAc(b1-3)Gal(b1-4)GlcNAc(b1-3)Gal(b1-4)GlcNAc(b1-3)Gal(b1-4)GlcNAc(b1-3)Gal(b1-4)GlcNAc(b1-6)]Man(a1-6)[Gal(b1-4)GlcNAc(b1-3)Gal(b1-4)GlcNAc(b1-3)Gal(b1-4)GlcNAc(b1-3)Gal(b1-4)GlcNAc(b1-3)Gal(b1-4)GlcNAc(b1-2)Man(a1-3)]Man(b1-4)GlcNAc(b1-4)[Fuc(a1-6)]GlcNAc
# Outline: as §1
# [14] = target: Gal(b1-4)GlcNAc(b1-3)Gal(b1-4)GlcNAc(b1-3)Gal(b1-4)GlcNAc(b1-3)Gal(b1-4)GlcNAc(b1-3)Gal(b1-4)GlcNAc(b1-3)Gal(b1-4)GlcNAc(b1-2)Man(a1-3)[Gal(b1-4)GlcNAc(b1-3)Gal(b1-4)GlcNAc(b1-3)Gal(b1-4)GlcNAc(b1-3)Gal(b1-4)GlcNAc(b1-3)Gal(b1-4)GlcNAc(b1-3)Gal(b1-4)GlcNAc(b1-2)Man(a1-6)]Man(b1-4)GlcNAc(b1-4)GlcNAc
# Outline: as §1
# [15] = target: Gal(b1-4)GlcNAc(b1-3)Gal(b1-4)GlcNAc(b1-3)GalNAc
# Outline: as §1
# [16] = target: Gal(b1-4)GlcNAc(b1-3)Gal(b1-4)GlcNAc(b1-3)[Gal(b1-4)GlcNAc(b1-3)Gal(b1-4)GlcNAc(b1-6)]GalNAc
# Outline: as §1
# [17] = target: Gal(b1-4)GlcNAc(b1-3)Gal(b1-4)GlcNAc(b1-6)[Gal(b1-3)]GalNAc
# Outline: as §1
# [18] = target: Gal(b1-4)GlcNAc(b1-3)Gal(b1-4)[Fuc(a1-3)]GlcNAc(b1-3)Gal(b1-4)[Fuc(a1-3)]GlcNAc
# Outline: as §1
# [19] = target: Gal(b1-4)GlcNAc(b1-3)GalNAc
# Outline: as §1
# [20] = target: Gal(b1-4)GlcNAc(b1-3)[Fuc(a1-3)GlcNAc(b1-6)]Gal(b1-4)Glc
# Outline: as §1
# [21] = target: Gal(b1-4)GlcNAc(b1-3)[Gal(b1-4)GlcNAc(b1-6)]Gal(b1-4)GlcNAc
# Outline: as §1
# [22] = target: Gal(b1-4)GlcNAc(b1-3)[GlcNAc(b1-6)]Gal(b1-4)GlcNAc
# Outline: as §1
# [23] = target: Gal(b1-4)GlcNAc(b1-6)Gal(b1-4)GlcNAc
# Outline: as §1
# [24] = target: Gal(b1-4)GlcNAc(b1-6)GalNAc
# Outline: as §1
# [25] = target: Gal(b1-4)GlcNAc(b1-6)[Gal(b1-3)]GalNAc
# Outline: as §1
# [26] = target: Gal(b1-4)GlcNAc(b1-6)[Gal(b1-4)GlcNAc(b1-3)]GalNAc
# Outline: as §1
# Gal(b1-4)GlcNAc6P = target: Gal(b1-4)GlcNAc6P
# Outline: as §1
# Gal(b1-6)Gal = target: Gal(b1-6)Gal
# Outline: as §1
# Gal3S(b1-3)GalNAc = target: Gal3S(b1-3)GalNAc
# Outline: as §1
# Gal3S(b1-3)GlcNAc = target: Gal3S(b1-3)GlcNAc
# Outline: as §1
# [27] = target: Gal3S(b1-3)[Fuc(a1-4)]GlcNAc
# Outline: as §1
# Gal3S(b1-4)Glc = target: Gal3S(b1-4)Glc
# Outline: as §1
# Gal3S(b1-4)Glc6S = target: Gal3S(b1-4)Glc6S
# Outline: as §1
# Gal3S(b1-4)GlcNAc = target: Gal3S(b1-4)GlcNAc
# Outline: as §1
# [28] = target: Gal3S(b1-4)[Fuc(a1-3)]Glc6S
# Outline: as §1
# [29] = target: Gal3S(b1-4)[Fuc(a1-3)]GlcNAc
# Outline: as §1
# [30] = target: Gal3S(b1-4)[Fuc(a1-3)]GlcNAc6S
# Outline: as §1
# Gal3S4S(b1-4)GlcNAc = target: Gal3S4S(b1-4)GlcNAc
# Outline: as §1
# Gal3S6S(b1-4)GlcNAc = target: Gal3S6S(b1-4)GlcNAc
# Outline: as §1
# Gal3S6S(b1-4)GlcNAc6S = target: Gal3S6S(b1-4)GlcNAc6S
# Outline: as §1
# Gal4S(b1-4)GlcNAc = target: Gal4S(b1-4)GlcNAc
# Outline: as §1
# Gal4S6S(b1-4)GlcNAc = target: Gal4S6S(b1-4)GlcNAc
# Outline: as §1
# Gal6P(b1-4)GlcNAc = target: Gal6P(b1-4)GlcNAc
# Outline: as §1
# Gal6S(b1-3)GlcNAc = target: Gal6S(b1-3)GlcNAc
# Outline: as §1
# Gal6S(b1-3)GlcNAc6S = target: Gal6S(b1-3)GlcNAc6S
# Outline: as §1
binder,measurement,setting,value
B1,glycan array binding signal (z-score),[1],0.071
same,glycan array binding signal (z-score),[2],-0.339
same,glycan array binding signal (z-score),[3],-0.191
same,glycan array binding signal (z-score),[4],-0.72
same,glycan array binding signal (z-score),[5],1.1
same,glycan array binding signal (z-score),[6],1.93
same,glycan array binding signal (z-score),[7],-0.199
same,glycan array binding signal (z-score),[8],-0.35
same,glycan array binding signal (z-score),[9],-0.265
same,glycan array binding signal (z-score),[10],-0.319
same,glycan array binding signal (z-score),[11],3.44
same,glycan array binding signal (z-score),[12],-0.204
same,glycan array binding signal (z-score),[13],2.67
same,glycan array binding signal (z-score),[14],0.268
same,glycan array binding signal (z-score),[15],-0.362
same,glycan array binding signal (z-score),[16],-0.093
same,glycan array binding signal (z-score),[17],0.409
same,glycan array binding signal (z-score),[18],0.393
same,glycan array binding signal (z-score),[19],0.403
same,glycan array binding signal (z-score),[20],0.53
same,glycan array binding signal (z-score),[21],0.195
same,glycan array binding signal (z-score),[22],-0.22
same,glycan array binding signal (z-score),[23],-0.361
same,glycan array binding signal (z-score),[24],-0.132
same,glycan array binding signal (z-score),[25],-0.22
same,glycan array binding signal (z-score),[26],-0.321
same,glycan array binding signal (z-score),Gal(b1-4)GlcNAc6P,-0.366
same,glycan array binding signal (z-score),Gal(b1-6)Gal,-0.492
same,glycan array binding signal (z-score),Gal3S(b1-3)GalNAc,-0.494
same,glycan array binding signal (z-score),Gal3S(b1-3)GlcNAc,0.172
same,glycan array binding signal (z-score),[27],0.295
same,glycan array binding signal (z-score),Gal3S(b1-4)Glc,-0.165
same,glycan array binding signal (z-score),Gal3S(b1-4)Glc6S,-0.109
same,glycan array binding signal (z-score),Gal3S(b1-4)GlcNAc,-0.289
same,glycan array binding signal (z-score),[28],0.497
same,glycan array binding signal (z-score),[29],-0.237
same,glycan array binding signal (z-score),[30],0.559
same,glycan array binding signal (z-score),Gal3S4S(b1-4)GlcNAc,1.21
same,glycan array binding signal (z-score),Gal3S6S(b1-4)GlcNAc,1.73
same,glycan array binding signal (z-score),Gal3S6S(b1-4)GlcNAc6S,-0.232
same,glycan array binding signal (z-score),Gal4S(b1-4)GlcNAc,-0.333
same,glycan array binding signal (z-score),Gal4S6S(b1-4)GlcNAc,1.07
same,glycan array binding signal (z-score),Gal6P(b1-4)GlcNAc,0.149
same,glycan array binding signal (z-score),Gal6S(b1-3)GlcNAc,-0.392
same,glycan array binding signal (z-score),Gal6S(b1-3)GlcNAc6S,0.023
